Source: PubChem BioAssay AID1159614 (National Center for Advancing Translational Sciences (NCATS), 2016)
About 65 (0.1%) of roughly 45,000 compounds were called active. Calls come from the whole dose curve; as a rule, active = well fitted activation curve with a large enough effect; inconclusive = small, poorly fitted or top-dose-only effect; inactive = no such curve, though single readings can be large or run the other way. This is one part of the list.

Molecular target: Galactocerebrosidase (Homo sapiens) (UniProt P54803)
Assay: A Novel Cell-Based Assay to Identify Small Molecules for B -Galactocerebrosidase; note: 0% is about no effect; nearly all actives have a fitted effect of over 65% in size
Details: 145M-Twi-hGALC-G270D cells (Twitcher mouse brain line with human GALC G270D), HMU-beta-Gal fluorescence, 48 h; series mostly up to 57.5 µM; activation: at the top concentration
Method in brief: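 Fluorescence readout: HMU-β-gal cleavage by mutant GALC (0.1 mM final, citrate/phosphate pH 5.2 with 1 mg/mL taurocholate), stopped with carbonate/bicarbonate plus Triton X-100. Cells: murine Twitcher 145M-Twi expressing human G270D GALC; qHTS for activators.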

Sequence of UniProt P54803 (P54803 whole entry, looked up): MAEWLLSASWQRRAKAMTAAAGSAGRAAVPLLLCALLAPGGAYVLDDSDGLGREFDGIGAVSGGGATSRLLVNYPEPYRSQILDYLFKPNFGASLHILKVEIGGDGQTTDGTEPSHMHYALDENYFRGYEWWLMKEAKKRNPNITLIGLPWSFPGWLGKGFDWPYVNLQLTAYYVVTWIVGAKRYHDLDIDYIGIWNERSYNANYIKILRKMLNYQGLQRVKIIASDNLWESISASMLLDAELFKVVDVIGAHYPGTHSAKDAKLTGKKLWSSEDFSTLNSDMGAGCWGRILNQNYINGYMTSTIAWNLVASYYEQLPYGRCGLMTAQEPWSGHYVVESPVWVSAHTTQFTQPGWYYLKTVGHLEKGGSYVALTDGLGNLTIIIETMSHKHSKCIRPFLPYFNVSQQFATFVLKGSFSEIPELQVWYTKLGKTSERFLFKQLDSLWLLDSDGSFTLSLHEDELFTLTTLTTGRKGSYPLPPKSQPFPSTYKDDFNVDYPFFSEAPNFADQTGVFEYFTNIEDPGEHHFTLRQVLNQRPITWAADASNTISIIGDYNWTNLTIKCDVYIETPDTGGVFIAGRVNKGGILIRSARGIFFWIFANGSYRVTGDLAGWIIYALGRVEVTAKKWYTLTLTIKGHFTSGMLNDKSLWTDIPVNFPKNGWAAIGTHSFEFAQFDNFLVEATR

activation, inactive:
O=C(NCc1ccco1)c1ccc2c(c1)N(Cc1ccc(F)cc1)C(=O)c1ccccc1S2=O (configuration not stated) -9.22%
O=C(CN1C(=O)CSc2ccc(S(=O)(=O)N3CCCCC3)cc21)NCc1ccc(F)cc1Cl -23.9%
CC(C)(C)c1ccc(C(=O)CCCCl)cc1 -10.6%
COc1cccc(C(=O)CN2CCN(S(=O)(=O)c3ccc(Cl)cc3)CC2)c1 -10.7%
Cc1cc(CCCOc2c(C)cc(-c3noc(C(F)(F)F)n3)cc2C)on1 -7.56%
Cc1ccc(-c2[nH]c(-c3ccccc3)nc2SCC(=O)NCC2CCCO2)cc1 (configuration not stated) -12.5%
COc1ccc(NC(=O)CN(C)S(=O)(=O)c2cnc[nH]2)cc1Cl -9.96%
CCc1cccc(C)c1NC(=O)Cn1ccn(Cc2ccc(Cl)cc2)c(=O)c1=O -10.3%
COc1ccc(-c2noc(COc3ccc(Br)cc3C)n2)cc1OC -7.17%
OCCOCCN1CCN(C(c2ccccc2)c2ccc(Cl)cc2)CC1 (configuration not stated) -15.1%
Cc1ccc(OCC(=O)Nc2cccc(C(=O)OCc3cc(=O)n4nc(C)sc4n3)c2)cc1 -15.8%
CCC(O)c1cc2c(cc1NC(=O)c1ccccc1F)OCCO2 (configuration not stated) -9.92%
O=C(CC1N=C2c3ccccc3N=C(SCc3cccc(F)c3)N2C1=O)NCc1ccc2c(c1)OCO2 (configuration not stated) -0.319%
O=C(O)c1ccc(NC(=O)c2cn(-c3ccccc3)nc2-c2ccc(Br)cc2)cc1 -13.6%
CCc1ccc(OCC(=O)Nc2ccc(-c3nc4ncccc4o3)cc2)cc1 -4%
Cc1ccc2c(c1C)NC(=O)CC2c1ccc(Cl)cc1Cl (configuration not stated) -12.6%
Cc1ccc(-c2cc(C(=O)Oc3ccccc3Cl)no2)cc1C 14.2%
Cc1ccc(N2CCN(C(=O)c3cc(S(=O)(=O)N4CCCCC4)c[nH]3)CC2)c(C)c1 -15%
Cc1ccc2nc(Cl)c3cc(C(=O)NC4CCC(C)CC4)sc3c2c1 (configuration not stated) -17.9%
COC(=O)c1cnc(N2CCN(c3ccc(F)cc3)CC2)c2ccccc12 -15.4%
COc1ccc(CCNC(=O)c2ccc3c(Cl)c4c(nc3c2)CCCC4)c(OC)c1 -42.3%
CS(=O)(=O)N1CCCc2cc(C(=O)Nc3cccc(C(F)(F)F)c3)ccc21 -25.3%
Cc1cccc(OCC(=O)N(Cc2ccccc2)c2ccccn2)c1 -13.2%
COc1cc(-c2nc(-c3cccc(Cl)c3)c(-c3ccccc3)[nH]2)cc(OC)c1OC 4.08%
COc1ccc(OCC(=O)Nc2ccccc2C(=O)OCc2cc(=O)n3nc(C)sc3n2)cc1 0.495%
COC(=O)c1ccc(CSc2nc3c(c(=O)[nH]2)CCC3)cc1 -13.4%
O=C(NCCN1CCCCC1)c1ccc(Cn2c(SCc3cccc(F)c3)nc3cccnc32)cc1 -11.3%
CC1CCC(NC(=O)c2ccc(CS(=O)(=O)c3c(Cl)cccc3Cl)o2)CC1 (configuration not stated) 4.66%
Cc1ccc(C)c(N2CCN(S(=O)(=O)c3cnc(N)nc3)CC2)c1 -3.58%
Cc1ccc2nc(N3CCN(c4cccc(C)c4C)CC3)c3nncn3c2c1 -7.99%
CCc1ccccc1NC(=O)Cn1c(=O)n(Cc2ccco2)c(=O)c2sc3ccccc3c21 7.11%
Cc1ccc(NC(=O)Cn2c(=O)n(Cc3ccc4c(c3)OCO4)c(=O)c3ccccc32)c(C)c1 -7.82%
O=C(Nc1cc(Cl)cc(Cl)c1)c1ccc(F)c(S(=O)(=O)NC2CCCCC2)c1 -9.85%
CCCCc1ccc(NC(=O)CSc2nc3ccccc3nc2N2CCOCC2)cc1 -17.7%
CC(C)c1ccc2oc(-c3ccc(NC(=O)c4cc5ccccc5o4)cc3)nc2c1 -12.1%
COc1ccc(CCNC(=O)CCSCc2ccccc2Cl)cc1OC 10.8%
O=C(NCCS(=O)(=O)N1CCN(c2ccc(F)cc2)CC1)C1CC(=O)N(c2ccc(F)cc2)C1 (configuration not stated) -2.83%
CCOC(=O)c1ccc2c(c1)N(Cc1ccccc1)C(=O)c1ccccc1S2 -10.3%
CC(C)CCn1c(=O)c2sccc2n2c(CCCC(=O)NC3CCC(C)CC3)nnc12 (configuration not stated) -14.5%
CCc1ccc(CNC(=O)Cn2c(-c3cccs3)cc3cc(F)ccc32)cc1 -2.57%
COc1ccccc1NC(=O)c1c(NC(=O)Cc2ccccc2)sc2c1CCC(C(C)(C)C)C2 (configuration not stated) -9.55%
CCn1nc(C)c(CCN(C)C(=O)Nc2cc(C)cc(C)c2)c1C -11.9%
O=C(Nc1cnc(N2CCC(N3CCCCC3)CC2)c(C(=O)O)c1)c1ccc(Br)cc1 -6.02%
CCn1ccc2c(OCC(=O)NCc3ccc(C)cc3)cccc2c1=O 3.74%
COc1ccccc1NC(=O)Cn1c(=O)n(Cc2ccccc2)c(=O)c2c3c(sc21)CN(C(C)=O)CC3 -11%
Cc1cc(C)nc(-n2nc(C)c3c2NC(=O)CC3c2cc(F)ccc2F)n1 (configuration not stated) -7.99%
Nc1nonc1C(=O)NCCNCc1ccc(Cl)c(Cl)c1 -11%
COc1ccc(-c2cc(C(C)=O)c(C)n2CCC(=O)Nc2ccc(C(F)(F)F)cc2)cc1 -10.9%
COc1ccc(CNC(=O)CSc2n[nH]c(-c3ccc(OC)cc3)n2)cc1 5.75%
Cc1ccc(NC(=O)c2cc3c([nH]c2=O)CC(C)(C)CC3=O)c(C)c1 -21.1%
Cn1c(=O)cc(SCC(=O)N2CCN(c3ccccc3F)CC2)c2cc(Cl)ccc21 -18.3%
CC(C)Sc1ncc(Cl)c(C(=O)Nc2ccc(S(=O)(=O)Nc3ncccn3)cc2)n1 -11%
Cc1ccccc1-c1nc(CS(=O)(=O)CC(=O)Nc2cc(Cl)cc(Cl)c2)c(C)o1 -3.85%
O=C(CSc1ncc(-c2ccccc2)[nH]1)Nc1cccc(C(F)(F)F)c1 -18.4%
Cc1cc(Cl)ccc1OCC(=O)Nc1c(C(=O)c2ccccc2)oc2ccccc12 -4.57%
COc1cc(Cn2c(=O)sc3ccccc32)ccc1OCCC(C)C -20.4%
CC(C)c1ccc2c(c1)-c1ccccc1S(=O)(=O)N2CC(=O)N1CCCCC1 -10.8%
CCOc1ccc(C(=O)NCCn2cc(SCC(=O)Nc3ccccc3)c3ccccc32)cc1 -32.1%
COC(=O)c1cc(NC(=O)c2sc3ncn(Cc4cccc(F)c4)c(=O)c3c2C)cc(C(=O)OC)c1 -7.02%
Cc1ccc(-n2c(SCC(=O)NCc3ccccc3)nc3c([nH]c4ccccc43)c2=O)cc1 2.12%
COc1cc(CN(C(=O)c2cccc(C)c2)c2ccccn2)cc(OC)c1OC -38.4%
Cc1ccccc1CCNC(=O)C1CCN(c2nc3ccccc3nc2C(F)(F)F)CC1 -12%
CCC1CCCCN1C(=O)c1nn(-c2ccc(OC)cc2)c(=O)c2c1c1ccccc1n2C (configuration not stated) -7.44%
O=C(NCc1ccccc1Cl)c1cc(=O)[nH]c2ccc(S(=O)(=O)N3CCCCC3)cc12 -5.71%
COc1ccccc1NC(=O)CCS(=O)(=O)c1cc2c3c(c1)CCN3C(=O)CC2 -10.8%
O=C(NCC1CCN(Cc2cccc(Cl)c2)CC1)c1cc2ccc3cccnc3c2[nH]1 -6.35%
CCN(Cc1ccccc1)C(=O)CN1C(=O)COc2ccc(S(=O)(=O)N(CC)CC)cc21 9.28%
COc1ccccc1CNC(=O)Cn1c(=O)oc2cc(S(=O)(=O)NCc3ccccc3)ccc21 2.17%
CC1=C(C(=O)Nc2ccc(Cl)cc2)C(C(C)C)n2nc(SCc3ccc(Cl)cc3)nc2N1 (configuration not stated) -1.78%
COc1ccccc1Nc1nc(-c2ccccc2Cl)c2cc(Br)ccc2n1 -6.31%
Cc1ccc(C)c(N2CCN(C(=O)CCn3c(=O)c4cccn4c4cccnc43)CC2)c1 -11.7%
Cc1cc(C)c2c(CC(=O)Nc3ccc(S(=O)(=O)Nc4ncccn4)cc3)coc2c1 -10.3%
COc1ccc(OC)c(CCNC(=O)C2=C(C)C(=O)OC23CCC(C)CC3)c1 (configuration not stated) -15.7%
O=C(Cn1nc(C(F)(F)F)c2c1CCC2)Nc1ccc(Cl)cc1 -2.69%
COc1ccc(Cl)cc1NC(=O)Cn1nc(Cc2ccncc2)c2ccccc2c1=O -4.75%
Cc1cc(F)ccc1NC1(c2ccccc2)C(=O)c2ccccc2C1=O -12.6%
COc1ccccc1NC(=O)N1CCC(CN2CCc3ccccc3C2)CC1 -4.51%
CCc1ccccc1NC(=O)C1CCN(C(=O)N2CC(C)Oc3ccc(Cl)cc32)CC1 (configuration not stated) -7.5%
CCOc1ccccc1NC(=O)Cn1c(=O)n(Cc2ccco2)c(=O)c2ccc(C(=O)NC3CCCC3)cc21 -6.75%
CCOc1ccc(N(CC(=O)Nc2ccccc2CC)S(=O)(=O)c2c(C)[nH]c(=O)[nH]c2=O)cc1 -3.55%
Cc1ccc(NC(=O)c2sc3nc[nH]c(=O)c3c2C)cc1Cl 7.57%
Cc1ccc(NC(=O)Cn2c(=O)oc3ccccc32)cc1C 0.473%
Cc1ccc(OC(=O)CSc2nnc(-c3cccs3)o2)cc1C 3.01%
CCOc1ccc(-n2c(SCC(=O)N3CCCCCC3)nc3c([nH]c4ccccc43)c2=O)cc1 1.56%
CC(C)COC(=O)c1ccc(N)cc1 -15.3%
CCn1cc(C(=O)NCCc2ccc(OC)c(OC)c2)c(=O)c2cc(S(=O)(=O)N3CCC(C)CC3)ccc21 -18.2%
COC(=O)c1c(NC(=O)c2cc(OC)c(OC)c(OC)c2Br)sc2c1CCC(C)C2 (configuration not stated) -11.8%
Cc1c(Cl)cccc1-n1ncc(C(=O)NCc2cccs2)c1C1CCN(C(=O)OC(C)(C)C)CC1 -13.5%
COc1ccc(CNC(=O)c2ccc3nc(CCc4ccccc4)oc3c2)c(OC)c1 -8.97%
CC(C)CNc1ncnc2c1nnn2C -5.06%
O=C(CCNS(=O)(=O)c1cccc2nsnc12)NCc1ccccc1 -9.08%
CNC(=O)Cn1c(=O)c2cccn2c2ccc(F)cc21 -18.6%
COc1ccc(CNC(=O)CCn2nc(C)c3c(C)n(-c4ccccc4)nc3c2=O)c(OC)c1 -4.79%
Cc1cccc(NC(=O)c2cc(S(=O)(=O)N3CCN(c4ccccc4F)CC3)ccc2F)c1C -1.68%
COc1cc(C2c3c(-c4ccc(C)cc4)n[nH]c3C(=O)N2c2ccc(F)cc2)ccc1O (configuration not stated) 2.85%
Cc1cc(C)c(NC(=O)Cn2c(=O)nc(-c3ccccc3)c3cc(Cl)ccc32)c(C)c1 -14%
CC(C)(C)c1ccc(CN(Cc2ccco2)c2cnc(S(C)(=O)=O)nc2C(=O)Nc2ccc(F)cc2)cc1 -4.69%
